Measured values published in the supplement of paper PMC10338343.
± gives the standard deviation. The entries are a selection whose mix differs from that of the whole data set.

tested on: MIWI (PIWIL1) piRISC loaded with piRNA #1 (30 nt); test: pre-steady-state target cleavage rate (min^-1); MIWI and MILI are mouse PIWI proteins and EfPiwi is from a freshwater sponge; tags in brackets are library labels; higher = faster piRNA-guided slicing of the target; details: guide: piRNA #1 5'p-UGAGGUAGUAGGUUGUAUAGUAUCCAGAGG; auxiliary factor: 500 nM mouse GTSF1
How it was run: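 The pre-steady-state cleavage rate was derived from a burst-and-steady-state fit of Cleave-'n-Seq data. For these assays, 1 nM active affinity-purified piRISC loaded with a single synthetic guide was mixed with […] a transcribed, DNA-blocked target RNA library in HEPES–potassium acetate buffer at 33 °C, with or without 500 nM GTSF1 partner protein, for 0–8 or 0–960 min. Sequencing counts of uncleaved targets were normalised to depth and to weakly complementary targets, and k3 was capped at 0.0001 min^-1 after three trials were pooled.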
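Further: 1 nM active piRISC with 0.1 nM target library at 33 °C single turnover.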

Sequence	pre-steady-state target cleavage rate
GGACUGAAUACUAUACAACCUACUACCUCA	1.67 ± 0.11
GGAGACCAUACUAUAGAACCAACUACCUCA	0.0382 ± 0.0054
GGAGACCUAACUAUAGAACCUAGUACCUCA	0.026 ± 0.0076
GGACUGCAUACUAUACAACCUACUACCUCA	1.55 ± 0.11
GGACUGCAUACUAUACAACCUACUACGUCA	0.49 ± 0.053
GCUCUGGAUACUAUACAAGCUACAACCUCA	0.995 ± 0.046
GGAGACCUUACUAUACAACCAACUUCCUCA	0.0154 ± 0.0044
GGAGACCUAUGAUAUGUUGCUACCUACCUCA	< 0.0001
GCUCUGGAUACUUUACAACCUACUACCUGA	0.746 ± 0.1
GGAGACCAUACUUAUCAACCUACUACCUCA	0.134 ± 0.034
GCUCUGGAUUCUAUACAAGCUACUACCUCA	1.3 ± 0.07
GGAGUGGUUACUAUACAACCUACUACGUCA	0.231 ± 0.035
GGAGACCAAACUAUUCAACCUACUACCUCA	0.766 ± 0.1
GGAGAGGAUACUAUUCUACCUACUACCUCA	0.861 ± 0.061
GGAGACCAUACUAUAGAACGUACUACCUCA	0.226 ± 0.03
GGUCAGGAUAGUAUACAACCUACUACCUCA	0.505 ± 0.035
GGAGACCUUACUAUAGAUCCUACUACCUCA	0.495 ± 0.043
GGAGACCUAUGUAUACAACCUACUUCCUCA	0.00815 ± 0.0022
CCUCUGGAUACUAAACAACCUACUACCUCA	1.86 ± 0.12
GCUCUGGAAACUAUACAACCUACUUCCUCA	0.296 ± 0.041

Sequence	pre-steady-state target cleavage rate
GGAGACCUUACUAUACAACAUACUACCUCA	0.85 ± 0.058
GGAGACGAUACUAUUCAACGUACUACCUCA	0.581 ± 0.033
GGAGAGGAUACUUUACAACCUACUACGUCA	0.322 ± 0.03
GGACUGGAUACUCAUACAACCUACUACCUCA	1.2 ± 0.096
GGAGACCAUACUAUACAACCAACUAGCUCA	0.0517 ± 0.011
GGUCUGGAUACUUAUACAACCUACUACCUCA	1.55 ± 0.11
GGACUGGAUACUAUACAACCGACUACCUCA	0.00859 ± 0.0015
GGAGACCAUACUAUACAACCUUACUACCUCA	0.00418 ± 0.0022
GGAGACCUAACUAUACAAGCUACUACCACA	0.65 ± 0.043
GGAGACCUAACUAAACAACCUACUACCUCA	0.242 ± 0.042
GCUCUGGAUGACUAUACAACCUACUACCUCA	1.1 ± 0.09
GGAGUGGUUACUAAACAACCUACUACCUCA	1.32 ± 0.073
GGAGACCAUACUAUACAACCUCUACCUCA	0.00374 ± 0.0027
GGAGACCAUACUUUACAACCUACUACCUCA	1.3 ± 0.087
GGAGAGGAUACUAUACACCUACUACCUCA	0.279 ± 0.026
CCUCUGGAUACAAUACAACCUACUACGUCA	1.51 ± 0.087
GGUCUGGAUACUAUACAACGAACUACCUCA	0.0146 ± 0.0024
GGAGACCAUACUAUACAUCCUACUACCACA	1.37 ± 0.085
GGACUGGAUACUAAUGAACCUACUACCUCA	0.201 ± 0.037
GGACUGGAUACUAUACAACCUAGAACCUCA	0.0154 ± 0.004
